The target of test [1] is T1, biotinylated human B7-H7 protein (Acro Biosystems, B77-H82F5) (human, UniProt Q9UM44 23-344, biotinylated).
T1 construct: Bought soluble protein; also called biotin-B7H7 protein
T1 sequence (looked up): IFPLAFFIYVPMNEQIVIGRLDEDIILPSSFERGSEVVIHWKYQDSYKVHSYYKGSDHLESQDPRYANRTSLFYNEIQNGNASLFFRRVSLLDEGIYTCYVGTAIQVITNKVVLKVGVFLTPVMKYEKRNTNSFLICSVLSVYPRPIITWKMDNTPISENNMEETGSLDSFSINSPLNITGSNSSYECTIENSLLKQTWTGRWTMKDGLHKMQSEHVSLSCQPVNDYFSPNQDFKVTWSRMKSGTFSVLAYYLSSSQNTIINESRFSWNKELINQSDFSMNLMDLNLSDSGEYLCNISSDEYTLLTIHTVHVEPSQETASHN
Kind of test: flow cytometry, blocking of biotinylated human B7-H7 binding to CHO-K1/KIR3DL3 cells. The source says: This example was intended to study the in vitro blocking activity of human anti-B7-H7 antibodies against the binding of human B7-H7 to its receptor KIR3DL3. A CHO-K1 cell (CHO-K1/KIR3DL3, Harbour BioMed US, Inc.) overexpressing human KIR3DL3 was used in experiments at the cellular level where human B7-H7/human KIR3DL3 binding was blocked. Briefly, the CHO-K1/KIR3DL3 cells were digested and resuspended in PBS containing 2% BSA. The cells were adjusted to a cell density of 1×10⁶ cells/mL. […] The cells were incubated at 4° C. for 1 hour in the dark. […] The cells were rinsed twice by adding pre-chilled PBS containing 2% BSA at 100 μL/well, and were centrifuged at 500 g at 4° C. for 5 minutes, and the supernatant was discarded. A fluorescent secondary antibody (PE Streptavidin, BD, Cat #: 554061, 1:200) was added at 100 μL/well, and the cells were incubated at 4° C. for 30 minutes in the dark. The cells were washed twice by adding pre-chilled PBS at 200 µL/well, and centrifuged at 500 g at 4° C. for 5 minutes, and the supernatant was discarded. Finally, the cells were resuspended in pre-chilled PBS at 200 μL/well, and the fluorescence signal values were read using an ACEA Novocyte3000 flow cytometer. IC50 was calculated.
Background: A flow cytometer gives signals particle by particle.

Test [2] has as its target T2, human B7-H7 on the cell surface (human, UniProt Q9UM44 23-414).
T2 construct: whole, on cells; also called hB7-H7; hu B7-H7
T2 sequence (looked up): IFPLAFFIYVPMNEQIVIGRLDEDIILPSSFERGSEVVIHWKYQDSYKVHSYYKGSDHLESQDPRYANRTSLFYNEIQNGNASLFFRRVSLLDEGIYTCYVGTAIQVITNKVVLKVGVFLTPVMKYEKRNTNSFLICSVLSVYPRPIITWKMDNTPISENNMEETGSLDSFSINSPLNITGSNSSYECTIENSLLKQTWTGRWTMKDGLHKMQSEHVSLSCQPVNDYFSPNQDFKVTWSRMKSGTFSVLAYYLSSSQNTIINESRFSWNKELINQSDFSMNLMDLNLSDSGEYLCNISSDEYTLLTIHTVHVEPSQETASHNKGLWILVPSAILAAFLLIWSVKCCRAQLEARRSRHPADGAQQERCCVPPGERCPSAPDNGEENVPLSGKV
As to the kind of experiment: flow cytometry, LS180 cells. On the procedure: This example was intended to study the in vitro activity of H2L2 monoclonal antibodies against human B7-H7 in binding to human/cynomolgus monkey B7-H7. Since homologous molecules of B7-H7 were not present in mice, the detection was not performed. […] The cells were adjusted to a cell density of 1×10⁶ cells/mL, respectively. The cells were seeded in a 96-well V-bottom plate (Corning, #3894) at 100 μL/well, and the antibody to be tested at 2× final concentration with 3-fold concentration gradient dilution was then added at 100 μL/well. The cells were incubated at 4° C. for 2 hours in the dark. After the incubation, the cells were rinsed twice by adding pre-chilled PBS containing 2% BSA at 100 μl/well, and centrifuged at 500 g at 4° C. for 5 minutes, and the supernatant was discarded. […] The cells were washed twice by adding pre-chilled PBS containing 2% BSA at 100 μL/well, and centrifuged at 500 g at 4° C. for 5 minutes, and the supernatant was discarded. Finally, the cells were resuspended in pre-chilled PBS containing 2% BSA at 200 μL/well, and the fluorescence signal values were read using an ACEA Novocyte3000 flow cytometer.

Test [3] deals with T3, B7-H6 /NCR3LG1 protein, human, recombinant (Fc tag) (Sino Biological, 16140-H02H) (human, UniProt Q68D85 25-262).
T3 construct: Bought
T3 sequence (looked up): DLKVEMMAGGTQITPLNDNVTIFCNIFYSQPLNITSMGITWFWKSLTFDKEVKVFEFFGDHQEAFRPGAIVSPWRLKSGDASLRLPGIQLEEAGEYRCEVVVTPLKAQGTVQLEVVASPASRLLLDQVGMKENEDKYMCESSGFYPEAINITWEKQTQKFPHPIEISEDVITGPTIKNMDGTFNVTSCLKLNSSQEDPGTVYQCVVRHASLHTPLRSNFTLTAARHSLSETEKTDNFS
As to the kind of experiment: ELISA on coated B7 family protein. As for the experimental part:
B7 family proteins (see Table 7 for details) were respectively diluted to […] with PBS, added into a 96-well plate (Corning, #9018) at 100 μl/well, and incubated at 4° C. overnight. After the liquid was discarded, the plate was washed 3 times with a PBST buffer (pH 7.4, containing 0.05% tween-20), 250 μl of blocking solution containing 2% BSA was added, and the plate was incubated for 1 hour at 37° C. The blocking solution was discarded, the plate was washed 3 times with PBST buffer (pH 7.4, containing 0.05% Tween-20), the antigen-binding protein to be tested was diluted to 2 concentrations of 10 nM and 1 nM, 100 μl of the diluted antigen-binding protein was added to each well, and the plate was incubated for 1 hour at 37° C., with the isotype antibody as the control. After the plate was washed 3 times with PBST buffer (pH 7.4, containing 0.05% Tween-20), goat anti-human HRP secondary antibody (Invitrogen, #A18805) diluted 5000 times was added, and the plate was incubated at 37° C. for 1 hour in the dark. After the plate was washed 3 times with PBST buffer (pH 7.4, containing 0.05% tween-20), TMB (Biopanda, #TMB-S-003) was added at 100 μl/well, and the plate was placed at room temperature for about 30 minutes in the dark; and a stop solution (BBI life sciences, #E661006-0200) was added to each well at 50 μl/well to stop the reaction, and the absorbance at 450 nm (OD450) was determined in a microplate reader (PerkinElemer, #Enspire).
(In general: An ELISA detects its analyte on a solid surface through an enzyme-linked reagent.)

B1: PR004261 (antibody, human IgG1, kappa)
heavy: QVQLVESGGGVVQPGRSLRLSCAASGFTFSDYGIHWVRQAPGKGLEWVAVIWYDGSDKYYADSVRGRFTISRDNSKNTLSLQMNSLRVEDTAVYYCARDRSSGAMGYFVYWGQGTLVTVSSASTKGPSVFPLAPSSKSTSGGTAALGCLVKDYFPEPVTVSWNSGALTSGVHTFPAVLQSSGLYSLSSVVTVPSSSLGTQTYICNVNHKPSNTKVDKKV[not shown - human IgG1 Fc with changes]
light: [not shown - about 100 residues][not shown - about 100 residues]
notes: Variant of PR003249; Human IgG1 with LALA mutation in Fc
Usually IC50 stands for the midpoint of a concentration-inhibition curve. A high value points to weaker potency. For orientation: EC50 means the midpoint of the concentration-response curve. A higher EC50 goes with a need for much substance. On to B1, for which, in test [1], the IC50 was found to be 6.97 nM and the “Maximum inhibition rate (%)” value was 101%. In test [2], the half-maximal effective concentration (EC50) stood at 0.036 nM and the “Maximum MFI” value worked out at 19700 MFI. In addition, in test [3], the binding result is listed as “no binding (tested: 10 nM)”.

B2: PR004262 (antibody, human IgG1, kappa)
heavy: QVQLVESGGGVVQPGRSLRLSCAASGFTFSNYGMHWVRQVPGKGLEWVAVIWYDGSEKDYADSVKGRFTISRDNSKNTLYLQMNSLRVEDTAVYYCAKDLISGIYYVDHWGQGTLVTVSSASTKGPSVFPLAPSSKSTSGGTAALGCLVKDYFPEPVTVSWNSGALTSGVHTFPAVLQSSGLYSLSSVVTVPSSSLGTQTYICNVNHKPSNTKVDKKV[not shown - human IgG1 Fc with changes]
light: DIQMTQSPSSLSASVGDRVTITCRASQGISNYLAWYQQKPGKVPKLLIYAASTLQSGVPSRFSGSGSGTDFTLTISSLQPEDVATYYCQKYNSAPFTFGPGTKVDIKRTVAAPSVFIFPPSDEQLKSGTASVVCLLNNFYPREAKVQWKVDNALQSGNSQESVTEQDSKDSTYSLSSTLTLSKADYEKHKVYACEVTHQGLSSPVTKSFNRGEC
notes: Variant of PR003259; Human IgG1 with LALA mutation in Fc
Turning to B2, in test [1], the IC50 was 6.54 nM and the “Maximum inhibition rate (%)” value was determined as 100%. Besides, in test [2], the EC50 is 0.048 nM and the “Maximum MFI” value came out at 19200 MFI. For the same molecule, the binding result in test [3] is listed as “no binding (tested: 10 nM)”.

B3: PR003259 (antibody, human IgG1, kappa)
heavy: QVQLVESGGGVVQPGRSLRLSCAASGFTFSNYGMHWVRQVPGKGLEWVAVIWYDGSEKDYADSVKGRFTISRDNSKNTLYLQMNSLRVEDTAVYYCAKDLISGIYYVDHWGQGTLVTVSS[not shown - human IgG1 constant region]
light: B2 light
notes: Human IgG1; also called 68F3A2
As to B3, in test [1], the half-maximal inhibitory concentration (IC50) was 7.81 nM and the “Maximum inhibition rate (%)” value came out at 108%. Moreover, in test [2], a half-maximal response (EC50) required 0.066 nM and the “Maximum MFI” value stood at 20300 MFI.

These data come from patent publication US20250136696A1 (HARBOUR BIOMED SHANGHAI, published 2025).
